We go through 31 sequences from PMC12820563, “FoxP3 forms a head-to-head dimer in vivo and stabilizes its multimerization on adjacent microsatellites”.

This is one part of the list.

The test has as its target T1, MBP-FoxP1dN (Mus musculus, UniProt P58462 326-579).
T1 sequence: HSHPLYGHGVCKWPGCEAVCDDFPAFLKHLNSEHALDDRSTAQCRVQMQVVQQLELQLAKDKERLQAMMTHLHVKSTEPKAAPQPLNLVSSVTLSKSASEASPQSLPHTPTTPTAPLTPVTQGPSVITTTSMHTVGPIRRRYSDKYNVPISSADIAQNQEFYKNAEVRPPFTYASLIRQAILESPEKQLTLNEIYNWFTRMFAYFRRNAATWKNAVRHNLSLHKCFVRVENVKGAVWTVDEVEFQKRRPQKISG
In words: PD-seq (MBP pull-down with sequencing); 20 mM Tris-HCl pH 7.5, 100 mM NaCl, 1.5 mM MgCl2, 0.4 uM protein, 0.1 uM dsDNA library, 30 min, room temperature, amylose pull-down; high values mean tight binding. The following applies: protein: recombinant; tags: His6-MBP; chain copies: 2; dsDNA, one strand shown. The method in brief:
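Binding is the reads-per-million enrichment of pull-down relative to input, pooled across replicates. For this, 0.4 µM His6-MBP-tagged mouse FoxP3 or FoxP1 fragment lacking the N-terminus, made in E. coli, was incubated with 0.1 µM Klenow-filled double-stranded degenerate DNA library for 30 min at room temperature in Tris pH 7.5 buffer with NaCl and MgCl2. Complexes bound to amylose resin were washed three times before proteinase K released the DNA for PCR barcoding and Illumina sequencing.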
In the case of “GATGATTGTTCTCCCAGCTGATGAATTAGGTCACTCGAGTAAACAAATTTTCCTAATCTTTCTGTTCAAGCGCCATCTAC”, the binding signal was 0.885 RPM ratio (pull-down/input).
As for “GATGATTGTTCTCCCAGCTGATGAATTGGATCCCTCGAGTAAACAAATTTTCCTAATCTTTCTGTTCAAGCGCCATCTAC”, the binding signal is 0.788 RPM ratio (pull-down/input).
As to “GATGATTGTTCTCCCAGCTGATGAATTTGCTCCATCGAGTAAACAAATTTTCCTAATCTTTCTGTTCAAGCGCCATCTAC”, the binding signal is 1.03 RPM ratio (pull-down/input).
In the case of “GATGATTGTTCTCCCAGCTGATGAATTAACTGTGTCGAGTAAACAAATTTTCCTAATCTTTCTGTTCAAGCGCCATCTAC”, the binding signal was 0.92 RPM ratio (pull-down/input).
On to “GATGATTGTTCTCCCAGCTGATGAATTCTCATTTTCGAGTAAACAAATTTTCCTAATCTTTCTGTTCAAGCGCCATCTAC”, for which the binding signal is 1.04 RPM ratio (pull-down/input).
As to “GATGATTGTTCTCCCAGCTGATGAATTAAGGTACTCGAGTAAACAAATTTTCCTAATCTTTCTGTTCAAGCGCCATCTAC”, the binding signal was 0.977 RPM ratio (pull-down/input).
Next, “GATGATTGTTCTCCCAGCTGATGAATTCGGAGTTTCGAGTAAACAAATTTTCCTAATCTTTCTGTTCAAGCGCCATCTAC”: 0.867 RPM ratio (pull-down/input); “GATGATTGTTCTCCCAGCTGATGAATTCCGTTATTCGAGTAAACAAATTTTCCTAATCTTTCTGTTCAAGCGCCATCTAC”: 1.07 RPM ratio (pull-down/input).
Regarding “GATGATTGTTCTCCCAGCTGATGAATTTGTCTGTTCGAGTAAACAAATTTTCCTAATCTTTCTGTTCAAGCGCCATCTAC”, the binding signal was 1.01 RPM ratio (pull-down/input).
As to “GATGATTGTTCTCCCAGCTGATGAATTTTAAGGATCGAGTAAACAAATTTTCCTAATCTTTCTGTTCAAGCGCCATCTAC”, the binding signal was 0.976 RPM ratio (pull-down/input).
With “GATGATTGTTCTCCCAGCTGATGAATTACATTTTTCGAGTAAACAAATTTTCCTAATCTTTCTGTTCAAGCGCCATCTAC”, the binding signal is 1.37 RPM ratio (pull-down/input).
Next, “GATGATTGTTCTCCCAGCTGATGAATTCCTCGTATCGAGTAAACAAATTTTCCTAATCTTTCTGTTCAAGCGCCATCTAC”: 0.859 RPM ratio (pull-down/input); “GATGATTGTTCTCCCAGCTGATGAATTCCGGGCATCGAGTAAACAAATTTTCCTAATCTTTCTGTTCAAGCGCCATCTAC”: 0.862 RPM ratio (pull-down/input).
For the sequence “GATGATTGTTCTCCCAGCTGATGAATTTAGAAATTCGAGTAAACAAATTTTCCTAATCTTTCTGTTCAAGCGCCATCTAC”, the binding signal is 0.989 RPM ratio (pull-down/input).
For the sequence “GATGATTGTTCTCCCAGCTGATGAATTCTACGATTCGAGTAAACAAATTTTCCTAATCTTTCTGTTCAAGCGCCATCTAC”, the binding signal is 0.847 RPM ratio (pull-down/input).
Turning to “GATGATTGTTCTCCCAGCTGATGAATTAAAGACATCGAGTAAACAAATTTTCCTAATCTTTCTGTTCAAGCGCCATCTAC”, the binding signal was 1.02 RPM ratio (pull-down/input).
“GATGATTGTTCTCCCAGCTGATGAATTCCCCCAGTCGAGTAAACAAATTTTCCTAATCTTTCTGTTCAAGCGCCATCTAC”: the binding signal was 0.776 RPM ratio (pull-down/input).
“GATGATTGTTCTCCCAGCTGATGAATTGTCCTGTTCGAGTAAACAAATTTTCCTAATCTTTCTGTTCAAGCGCCATCTAC”: the binding signal was 1.04 RPM ratio (pull-down/input).
For “GATGATTGTTCTCCCAGCTGATGAATTAACGATATCGAGTAAACAAATTTTCCTAATCTTTCTGTTCAAGCGCCATCTAC”, the binding signal is 1.03 RPM ratio (pull-down/input).
Consider “GATGATTGTTCTCCCAGCTGATGAATTTCGGCAGTCGAGTAAACAAATTTTCCTAATCTTTCTGTTCAAGCGCCATCTAC”, for which the binding signal is 0.847 RPM ratio (pull-down/input).
For “GATGATTGTTCTCCCAGCTGATGAATTGTACTCCTCGAGTAAACAAATTTTCCTAATCTTTCTGTTCAAGCGCCATCTAC”, the binding signal is 0.949 RPM ratio (pull-down/input).
As to “GATGATTGTTCTCCCAGCTGATGAATTTGTCATATCGAGTAAACAAATTTTCCTAATCTTTCTGTTCAAGCGCCATCTAC”, the binding signal is 1.24 RPM ratio (pull-down/input).
Next, “GATGATTGTTCTCCCAGCTGATGAATTATCTATGTCGAGTAAACAAATTTTCCTAATCTTTCTGTTCAAGCGCCATCTAC”: 0.972 RPM ratio (pull-down/input); “GATGATTGTTCTCCCAGCTGATGAATTGAGCGTGTCGAGTAAACAAATTTTCCTAATCTTTCTGTTCAAGCGCCATCTAC”: 0.844 RPM ratio (pull-down/input); “GATGATTGTTCTCCCAGCTGATGAATTCCATAGGTCGAGTAAACAAATTTTCCTAATCTTTCTGTTCAAGCGCCATCTAC”: 0.774 RPM ratio (pull-down/input).
Take “GATGATTGTTCTCCCAGCTGATGAATTGTGTAGCTCGAGTAAACAAATTTTCCTAATCTTTCTGTTCAAGCGCCATCTAC”: the binding signal was 1.07 RPM ratio (pull-down/input).
For “GATGATTGTTCTCCCAGCTGATGAATTGGTACCTTCGAGTAAACAAATTTTCCTAATCTTTCTGTTCAAGCGCCATCTAC”, the binding signal is 0.97 RPM ratio (pull-down/input).
Turning to “GATGATTGTTCTCCCAGCTGATGAATTGATTAAATCGAGTAAACAAATTTTCCTAATCTTTCTGTTCAAGCGCCATCTAC”, the binding signal was 1.23 RPM ratio (pull-down/input).
In the case of “GATGATTGTTCTCCCAGCTGATGAATTTTGTCAATCGAGTAAACAAATTTTCCTAATCTTTCTGTTCAAGCGCCATCTAC”, the binding signal was 1.33 RPM ratio (pull-down/input).
“GATGATTGTTCTCCCAGCTGATGAATTCCTAGATTCGAGTAAACAAATTTTCCTAATCTTTCTGTTCAAGCGCCATCTAC”: the binding signal was 0.819 RPM ratio (pull-down/input).
Next, “GATGATTGTTCTCCCAGCTGATGAATTAACGCGTTCGAGTAAACAAATTTTCCTAATCTTTCTGTTCAAGCGCCATCTAC”: 1.06 RPM ratio (pull-down/input).
